According to ChEMBL document CHEMBL1201862, “PubChem BioAssay data set” (2004):
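Dose response: 5 concentrations. Exposure: 48 h. Format: 96-well plates. Endpoint: linear interpolation; highest concentration if not reached. The concentration for 50% growth inhibition is given as GI50.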 Activity calls are given as the source filed them. Rule as the data show it: active = GI50 up to about 1.1 µM and inactive = higher.

The molecules below were run on NCI-H322M (assay: DTP human tumour cell line panel, 48 h).

SMILES	GI50
CC(C)(C)/N=c1/n(C(C)(C)C)oc(=O)n1-c1ccccc1	inactive: > 50 µM
Cc1cc(-c2cscn2)c(O)c([N+](=O)[O-])c1	inactive: 77.1 µM
CCCCCCCCCCSC(=O)NC	inactive: > 100 µM
Nc1ccccc1C(=O)C(Br)C(Br)c1ccc2c(c1)OCO2 (stereo unspecified)	inactive: 36.6 µM
Nc1nc2c(ncn2C2CCC(CO)O2)c(=O)n1C(=O)c1ccccc1 (stereo unspecified)	inactive: > 100 µM
CCCCN(CC)C(=O)C1=C(C)NC(C)=C(C(=O)N(CC)CCCC)C1	inactive: > 100 µM
N/N=C1\C(=O)N(CCc2ccccc2)C(=O)C1C(=O)NCCc1ccccc1 (stereo unspecified)	inactive: > 100 µM
C[N+]12CCCCC1C(CN1C(=O)c3ccccc3C1=O)CCC2 (stereo unspecified)	inactive: > 100 µM
COc1ccccc1C1C(Cl)C(=O)N1NC(=O)Cc1ccccc1 (stereo unspecified)	inactive: > 100 µM
Cc1ccc2c(c1)CC1(Cc3ccccc3C1=O)C2=O (stereo unspecified)	inactive: > 100 µM
CCCc1nc(N)nc(C(=O)Nc2cccc(C(F)(F)F)c2)c1CC	inactive: > 100 µM
Clc1ccc(Nc2nnc(CCCCCCCCc3nnc(Nc4ccc(Cl)cc4)o3)o2)cc1	inactive: 37 µM
Cc1ccc(C(=O)C(C)N)cc1 (stereo unspecified)	inactive: > 100 µM
C=C1C(=O)O[C@H]2[C@H]3O[C@@H](C[C@@H]12)[C@](C)(O)CCCC(C)=CCC[C@H]3C	inactive: 19.6 µM
C=CC1(CC[C@]2(c3ccc(OC)c(OC)c3)C=[N+]([O-])O[C@H](O[C@@H]3CCCC[C@H]3C(C)(C)c3ccccc3)C2)OCC(C)(C)CO1	inactive: 33.3 µM
C=CCc1cccc2cc(C(=O)Nc3ccccn3)c(=N)oc12	inactive: > 100 µM
C[C@H]1CC[C@@H]2[C@@H](C)[C@H]3[C@H](C[C@H]4[C@@H]5CC=C6C[C@@H](O)CC[C@]6(C)[C@H]5C[C@H](O)[C@]34C)N2C1	inactive: > 100 µM
Oc1cccnc1/C=N/OCc1ccccc1	inactive: > 100 µM

SMILES	GI50
N=C1/C(=C/c2ccco2)C(=O)N=C2SC=NN12	inactive: > 100 µM
COC(=O)C1=C(C[S+]([O-])c2ccc([N+](=O)[O-])cc2[N+](=O)[O-])ON(C)C1c1ccccc1 (stereo unspecified)	inactive: > 100 µM
COC(=O)C1=NN2c3ccccc3CN([C@@H](C)c3ccccc3)C(=O)[C@H]2[C@@H]1C	inactive: 61.2 µM
N#CC1(C#N)C2CCCCC23OC(=N)C1(C#N)C(c1ccco1)O3 (stereo unspecified)	inactive: > 100 µM
COC(=O)C1CCC(=O)C(Sc2ccccc2)C1 (stereo unspecified)	inactive: > 100 µM
CC(=O)NCCC1CNc2ccccc21 (stereo unspecified)	inactive: > 100 µM
COc1cccc(/C=N/n2c(Cc3ccc(Cl)cc3)n[nH]c2=O)c1	inactive: > 94.6 µM
CN(/N=C/c1ccnc2ccccc12)c1ccc([N+](=O)[O-])cc1[N+](=O)[O-]	inactive: 46.2 µM
CC1=C(C(=O)c2ccccc2)C23C(=O)N(c4ccccc4)C(=O)C2=C(O)C=CC3(O)N1 (stereo unspecified)	inactive: > 100 µM
COc1ccc2c3c(coc13)C(CCC(=O)O)CC2 (stereo unspecified)	inactive: > 100 µM
O=C(O)/C=C/c1ccc(OS(=O)(=O)O)cc1	inactive: > 100 µM
C=C(CCCCCCCCC)CC(=O)SCCNC(=O)CCNC(=O)C(O)C(C)(C)COP(=O)(O)OP(=O)(O)OCC1OC(n2cnc3c(N)ncnc32)C(O)C1OP(=O)(O)O (stereo unspecified)	inactive: > 89.5 µM
O=C(NCCCn1ccnc1[N+](=O)[O-])C(=O)NCCCn1ccnc1[N+](=O)[O-]	inactive: > 100 µM
O=C(NN1C(=O)C(Cl)C1c1c(O)ccc2ccccc12)c1ccccc1O (stereo unspecified)	inactive: > 100 µM
CC(N/N=C(\S)N1CCCCCC1)c1cccnn1 (stereo unspecified)	active: 0.394 µM
Cc1cc(S(=O)(=O)Nc2nnc3c(Cl)cc(C(F)(F)F)cn23)c(S)cc1Cl	inactive: 40.5 µM
CC(C)C[C@H](NC(=O)[C@H](Cc1ccc(F)cc1)NC(=O)c1ccccn1)B(O)O	active: < 0.0103 µM
COc1cc(CC(=O)c2ccc3c(c2)OCO3)cc(OC)c1OC	inactive: > 100 µM
